Results are given in words; binding and its absence hold for the method and conditions named. Binding seen in cells or lysates may run through a third protein. Some entries that bind do so weakly or less than the wild type. For some assays here: Where a sequence is shown, tags or fusion partners need not be part of it.
What was measured:
[1] = biological target: T1, nucleotide pyrophosphatase (NPPS), endogenous in H292 isogenic cells (human (endogenous in H292)) (UniProt P22413); experiment: co-IP; endogenous proteins; NP-40 lysates of H292 isogenic cells (KRAS WT and KRAS G12C) incubated with anti-NPPS or anti-HK1 at 4 °C overnight, Protein A/G magnetic beads 3 h; Western blot
T1 sequence: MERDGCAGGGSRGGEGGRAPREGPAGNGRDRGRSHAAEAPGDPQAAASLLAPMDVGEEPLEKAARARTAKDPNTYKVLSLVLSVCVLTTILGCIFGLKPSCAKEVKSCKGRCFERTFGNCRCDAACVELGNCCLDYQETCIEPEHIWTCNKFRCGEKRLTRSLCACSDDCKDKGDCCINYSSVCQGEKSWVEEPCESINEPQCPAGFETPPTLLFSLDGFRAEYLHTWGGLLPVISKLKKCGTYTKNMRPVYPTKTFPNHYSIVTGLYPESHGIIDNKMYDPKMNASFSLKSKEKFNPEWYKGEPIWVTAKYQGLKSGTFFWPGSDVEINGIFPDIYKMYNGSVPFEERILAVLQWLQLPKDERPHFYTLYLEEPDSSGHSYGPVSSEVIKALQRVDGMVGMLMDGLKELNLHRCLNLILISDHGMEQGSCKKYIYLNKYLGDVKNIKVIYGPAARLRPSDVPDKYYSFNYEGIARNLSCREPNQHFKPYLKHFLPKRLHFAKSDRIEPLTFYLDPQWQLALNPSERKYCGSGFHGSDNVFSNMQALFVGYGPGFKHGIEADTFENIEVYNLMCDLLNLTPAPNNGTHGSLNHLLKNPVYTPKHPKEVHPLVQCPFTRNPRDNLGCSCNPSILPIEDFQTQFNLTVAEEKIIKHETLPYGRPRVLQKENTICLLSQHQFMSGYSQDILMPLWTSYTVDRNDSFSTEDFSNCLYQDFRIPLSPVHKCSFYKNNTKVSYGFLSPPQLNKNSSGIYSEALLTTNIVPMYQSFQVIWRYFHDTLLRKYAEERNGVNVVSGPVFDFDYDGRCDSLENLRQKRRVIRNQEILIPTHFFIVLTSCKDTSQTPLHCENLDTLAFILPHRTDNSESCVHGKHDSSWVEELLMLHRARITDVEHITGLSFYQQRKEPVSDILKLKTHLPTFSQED

[2] = biological target: T2, Flag-NPPS (human NPPS with a C-terminal 3 × Flag) (human) (UniProt P22413); experiment: co-IP; HEK293T cells cotransfected with Flag-NPPS and HA-HK1 or HK1 truncations and deletions; NP-40 lysates with anti-FLAG M2 magnetic beads at 4 °C overnight; Western blot
T2 sequence: T1 sequence

B1: hexokinase 1 (HK1), endogenous in H292 isogenic cells (protein, UniProt P19367-1 1-917)
chain: MIAAQLLAYYFTELKDDQVKKIDKYLYAMRLSDETLIDIMTRFRKEMKNGLSRDFNPTATVKMLPTFVRSIPDGSEKGDFIALDLGGSSFRILRVQVNHEKNQNVHMESEVYDTPENIVHGSGSQLFDHVAECLGDFMEKRKIKDKKLPVGFTFSFPCQQSKIDEAILITWTKRFKASGVEGADVVKLLNKAIKKRGDYDANIVAVVNDTVGTMMTCGYDDQHCEVGLIIGTGTNACYMEELRHIDLVEGDEGRMCINTEWGAFGDDGSLEDIRTEFDREIDRGSLNPGKQLFEKMVSGMYLGELVRLILVKMAKEGLLFEGRITPELLTRGKFNTSDVSAIEKNKEGLHNAKEILTRLGVEPSDDDCVSVQHVCTIVSFRSANLVAATLGAILNRLRDNKGTPRLRTTVGVDGSLYKTHPQYSRRFHKTLRRLVPDSDVRFLLSESGSGKGAAMVTAVAYRLAEQHRQIEETLAHFHLTKDMLLEVKKRMRAEMELGLRKQTHNNAVVKMLPSFVRRTPDGTENGDFLALDLGGTNFRVLLVKIRSGKKRTVEMHNKIYAIPIEIMQGTGEELFDHIVSCISDFLDYMGIKGPRMPLGFTFSFPCQQTSLDAGILITWTKGFKATDCVGHDVVTLLRDAIKRREEFDLDVVAVVNDTVGTMMTCAYEEPTCEVGLIVGTGSNACYMEEMKNVEMVEGDQGQMCINMEWGAFGDNGCLDDIRTHYDRLVDEYSLNAGKQRYEKMISGMYLGEIVRNILIDFTKKGFLFRGQISETLKTRGIFETKFLSQIESDRLALLQVRAILQQLGLNSTCDDSILVKTVCGVVSRRAAQLCGAGMAAVVDKIRENRGLDRLNVTVGVDGTLYKLHPHFSRIMHQTVKELSPKCNVSFLLSEDGSGKGAALITAVGVRLRTEASS
[1]
  binding: binds

B2: HA-HK1 (human HK1 with a C-terminal HA) (protein, UniProt P19367-1 1-917)
chain: B1 chain
[2]
  binding: binds

B3: HK1-∆MBD (1–21 aa deletion) with a C-terminal HA (domain or fragment, UniProt P19367-1 22-917)
chain: IDKYLYAMRLSDETLIDIMTRFRKEMKNGLSRDFNPTATVKMLPTFVRSIPDGSEKGDFIALDLGGSSFRILRVQVNHEKNQNVHMESEVYDTPENIVHGSGSQLFDHVAECLGDFMEKRKIKDKKLPVGFTFSFPCQQSKIDEAILITWTKRFKASGVEGADVVKLLNKAIKKRGDYDANIVAVVNDTVGTMMTCGYDDQHCEVGLIIGTGTNACYMEELRHIDLVEGDEGRMCINTEWGAFGDDGSLEDIRTEFDREIDRGSLNPGKQLFEKMVSGMYLGELVRLILVKMAKEGLLFEGRITPELLTRGKFNTSDVSAIEKNKEGLHNAKEILTRLGVEPSDDDCVSVQHVCTIVSFRSANLVAATLGAILNRLRDNKGTPRLRTTVGVDGSLYKTHPQYSRRFHKTLRRLVPDSDVRFLLSESGSGKGAAMVTAVAYRLAEQHRQIEETLAHFHLTKDMLLEVKKRMRAEMELGLRKQTHNNAVVKMLPSFVRRTPDGTENGDFLALDLGGTNFRVLLVKIRSGKKRTVEMHNKIYAIPIEIMQGTGEELFDHIVSCISDFLDYMGIKGPRMPLGFTFSFPCQQTSLDAGILITWTKGFKATDCVGHDVVTLLRDAIKRREEFDLDVVAVVNDTVGTMMTCAYEEPTCEVGLIVGTGSNACYMEEMKNVEMVEGDQGQMCINMEWGAFGDNGCLDDIRTHYDRLVDEYSLNAGKQRYEKMISGMYLGEIVRNILIDFTKKGFLFRGQISETLKTRGIFETKFLSQIESDRLALLQVRAILQQLGLNSTCDDSILVKTVCGVVSRRAAQLCGAGMAAVVDKIRENRGLDRLNVTVGVDGTLYKLHPHFSRIMHQTVKELSPKCNVSFLLSEDGSGKGAALITAVGVRLRTEASS
[2]
  binding: binds

B4: HK1-∆C (475–917 aa deletion) with a C-terminal HA (domain or fragment, UniProt P19367-1 1-474)
chain: MIAAQLLAYYFTELKDDQVKKIDKYLYAMRLSDETLIDIMTRFRKEMKNGLSRDFNPTATVKMLPTFVRSIPDGSEKGDFIALDLGGSSFRILRVQVNHEKNQNVHMESEVYDTPENIVHGSGSQLFDHVAECLGDFMEKRKIKDKKLPVGFTFSFPCQQSKIDEAILITWTKRFKASGVEGADVVKLLNKAIKKRGDYDANIVAVVNDTVGTMMTCGYDDQHCEVGLIIGTGTNACYMEELRHIDLVEGDEGRMCINTEWGAFGDDGSLEDIRTEFDREIDRGSLNPGKQLFEKMVSGMYLGELVRLILVKMAKEGLLFEGRITPELLTRGKFNTSDVSAIEKNKEGLHNAKEILTRLGVEPSDDDCVSVQHVCTIVSFRSANLVAATLGAILNRLRDNKGTPRLRTTVGVDGSLYKTHPQYSRRFHKTLRRLVPDSDVRFLLSESGSGKGAAMVTAVAYRLAEQHRQIEETL
[2]
  binding: binds

B5: HK1-∆N’ (22–474 aa deletion) with a C-terminal HA (protein, UniProt P19367-1)
chain: MIAAQLLAYYFTELKDDQVKKAHFHLTKDMLLEVKKRMRAEMELGLRKQTHNNAVVKMLPSFVRRTPDGTENGDFLALDLGGTNFRVLLVKIRSGKKRTVEMHNKIYAIPIEIMQGTGEELFDHIVSCISDFLDYMGIKGPRMPLGFTFSFPCQQTSLDAGILITWTKGFKATDCVGHDVVTLLRDAIKRREEFDLDVVAVVNDTVGTMMTCAYEEPTCEVGLIVGTGSNACYMEEMKNVEMVEGDQGQMCINMEWGAFGDNGCLDDIRTHYDRLVDEYSLNAGKQRYEKMISGMYLGEIVRNILIDFTKKGFLFRGQISETLKTRGIFETKFLSQIESDRLALLQVRAILQQLGLNSTCDDSILVKTVCGVVSRRAAQLCGAGMAAVVDKIRENRGLDRLNVTVGVDGTLYKLHPHFSRIMHQTVKELSPKCNVSFLLSEDGSGKGAALITAVGVRLRTEASS
[2]
  binding: no binding
